Patent US11618753B2 (priority 2018, dated 2023)

The molecules below were run on MLKL phosphorylation, HT29-L23 human colorectal adenocarcinoma cells. Settings: read-out: pMLKL HCS Cell Assay (IC50).

Row | SMILES | IC50 [nM]
1 | COc1ncc(-c2cc(C(F)(F)F)c3c(N)ncnn23)cc1C(=O)N[C@@H]1CN(C(CC(F)(F)F)c2ccccc2)C[C@@H]1F (single isomer, unassigned) [Example 447] | 126
2 | COc1ncc(-c2cc(C(F)(F)F)c3c(N)ncnn23)cc1C(=O)N[C@@H]1CN(C(C)c2ccncc2F)C[C@@H]1F (single isomer, unassigned) [Example 454] | 4
3 | COc1ncc(-c2cc(C(F)(F)F)c3c(N)ncnn23)cc1C(=O)N[C@@H]1CN(C(C)c2ccncc2F)C[C@@H]1F (single isomer, unassigned) [Example 455] | 27
4 | COc1ncc(-c2cc(C(F)(F)F)c3c(N)ncnn23)cc1C(=O)N[C@@H]1CN(C(C)c2ccc(F)cc2)C[C@@H]1F (single isomer, unassigned) [Example 463] | 4.6
5 | [2H]C([2H])([2H])Oc1nc(C)c(-c2cc(C(F)(F)F)c3c(N)ncnn23)cc1C(=O)NC1CN(C(=O)C2CCC(F)(F)C2)C[C@@H]1F (single isomer, unassigned) [Example 515] | 196
6 | [2H]C([2H])([2H])Oc1nc(C)c(-c2cc(C(F)(F)F)c3c(N)ncnn23)cc1C(=O)NC1CN(C(=O)C2CCC(F)(F)C2)C[C@@H]1F (single isomer, unassigned) [Example 516] | 80
7 | Cc1nc(C)c(-c2cc(C(F)(F)F)c3c(N)ncnn23)cc1C(=O)N[C@@H]1CN(C(=O)C2CCC(F)(F)C2)C[C@@H]1F (single isomer, unassigned) [Example 527] | 79
8 | Cc1cc(C)c(-c2cc(C(F)(F)F)c3c(N)ncnn23)cc1C(=O)N[C@@H]1CN(C(=O)C2CC(F)C2)C[C@@H]1F (single isomer, unassigned) [Example 535] | 28
9 | COc1ncc(-c2c(C#N)cc3c(N)ncnn23)cc1C(=O)N[C@@H]1CN(C(=O)C2CCC(C(F)(F)F)CC2)C[C@@H]1F (single isomer, unassigned) [Example 556] | 5380
10 | COc1ncc(-c2c(C#N)cc3c(N)ncnn23)cc1C(=O)N[C@@H]1CN(C(=O)C2CCC(C(F)(F)F)CC2)C[C@@H]1F (single isomer, unassigned) [Example 557] | 1980
11 | Cc1cc(F)c(-c2cc(C(F)(F)F)c3c(N)ncnn23)cc1C(=O)N[C@@H]1CN(C(=O)C2CC2(F)F)C[C@@H]1F (single isomer, unassigned) [Example 861] | 6.1
12 | Cc1cc(F)c(-c2cc(C(F)(F)F)c3c(N)ncnn23)cc1C(=O)N[C@@H]1CN(C(=O)C2CC2(F)F)C[C@@H]1F (single isomer, unassigned) [Example 862] | 103
13 | CC(C(=O)N1C[C@H](F)[C@H](NC(=O)c2cc(-c3cc(C(F)(F)F)c4c(N)ncnn34)cc(F)c2Cl)C1)C(F)(F)F (single isomer, unassigned) [Example 1328] | 71
14 | CC(C(=O)N1C[C@H](F)[C@H](NC(=O)c2cc(-c3cc(C(F)(F)F)c4c(N)ncnn34)cc(F)c2Cl)C1)C(F)(F)F (single isomer, unassigned) [Example 1329] | 3.7
15 | CC(CC(=O)N1C[C@H](F)[C@H](NC(=O)c2cc(-c3cc(C(F)(F)F)c4c(N)ncnn34)cc(F)c2Cl)C1)C(F)(F)F (single isomer, unassigned) [Example 1330] | 3.3
16 | CC(CC(=O)N1C[C@H](F)[C@H](NC(=O)c2cc(-c3cc(C(F)(F)F)c4c(N)ncnn34)cc(F)c2Cl)C1)C(F)(F)F (single isomer, unassigned) [Example 1331] | 21
17 | CCCC(N)(C(=O)N1CC(NC(=O)c2cc(-c3cc(C(F)(F)F)c4c(N)ncnn34)cnc2OC)[C@@H](F)C1)C(F)(F)F (single isomer, unassigned) [Example 1546] | 17

Row | SMILES | IC50 [nM]
18 | Cc1ncc(-c2cc(C(F)(F)F)c3c(N)ncnn23)cc1C(=O)N1CCCC(C(O)c2ccc(F)cc2)C1 (single isomer, unassigned) [Example 1729, (5-(4-amino-5-(trifluoromethyl)pyrrolo[2,1-f][1,2,4]triazin-7-yl)-2-methylpyridin-3-yl)(3-((4-fluorophenyl)(hydroxy)methyl)piperidin-1-yl)methanone] | 25
19 | COc1ncc(-c2cc(C(F)(F)F)c3c(N)ncnn23)cc1C(=O)N1CCCC(C(O)c2ccc(F)cc2)C1 (single isomer, unassigned) [Example 1731, (5-(4-amino-5-(trifluoromethyl)pyrrolo[2,1-f][1,2,4]triazin-7-yl)-2-methoxypyridin-3-yl)(3-((4-fluorophenyl)(hydroxy)methyl)piperidin-1-yl)methanone] | 28
20 | COc1ncc(-c2cc(C(F)(F)F)c3c(N)ncnn23)cc1C(=O)N1CCCC(C(O)c2ccc(F)cc2)C1 (single isomer, unassigned) [Example 1732, (5-(4-amino-5-(trifluoromethyl)pyrrolo[2,1-f][1,2,4]triazin-7-yl)-2-methoxypyridin-3-yl)(3-((4-fluorophenyl)(hydroxy)methyl)piperidin-1-yl)methanone] | 82
21 | COc1ncc(-c2cc(C(F)(F)F)c3c(N)ncnn23)cc1C(=O)NCC(C)(O)C(OC)c1ccc(F)cc1 (single isomer, unassigned) [Example 1753, 5-(4-amino-5-(trifluoromethyl)pyrrolo[2,1-f][1,2,4]triazin-7-yl)-N-(3-(4-fluorophenyl)-2-hydroxy-3-methoxy-2-methylpropyl)-2-methoxynicotinamide] | 4.1
22 | COc1ncc(-c2cc(C(F)(F)F)c3c(N)ncnn23)cc1C(=O)NCC(C)(O)C(OC)c1ccc(F)cc1 (single isomer, unassigned) [Example 1754, 5-(4-amino-5-(trifluoromethyl)pyrrolo[2,1-f][1,2,4]triazin-7-yl)-N-(3-(4-fluorophenyl)-2-hydroxy-3-methoxy-2-methylpropyl)-2-methoxynicotinamide] | 27
23 | Cc1ncc(-c2cc(C(F)(F)F)c3c(N)ncnn23)cc1C(=O)NC1CN(C(=O)C2CCC(F)CC2)C[C@@H]1F (stereo in doubt) [Example 360, 5-[4-amino-5-(trifluoromethyl)pyrrolo [2,1-f][1,2,4]triazin-7-yl]-N-[4-fluoro-1-(4-fluorocyclohexanecarbonyl)pyrrolidin-3-yl]-2-methylpyridine-3-carboxamide] | 25
24 | Nc1ncnn2c(-c3cccc(C(=O)N[C@@H]4CN(C(=O)C5CCC(F)CC5)C[C@@H]4F)c3)cc(C(F)(F)F)c12 (stereo partly drawn) [Example 102, 3-[4-amino-5-(trifluoromethyl)pyrrolo[2,1-f][1,2,4]triazin-7-yl]-N-[(3R,4S)-4-fluoro-1-(4-fluorocyclohexanecarbonyl)pyrrolidin-3-yl]benzamide] | 123
25 | Nc1ncnn2c(-c3cccc(C(=O)N[C@@H]4CN(C(=O)C5CCC(F)CC5)C[C@@H]4F)c3)cc(C(F)(F)F)c12 (stereo partly drawn) [Example 103, 3-[4-amino-5-(trifluoromethyl)pyrrolo[2,1-f][1,2,4]triazin-7-yl]-N-[(3R,4S)-4-fluoro-1-(4-fluorocyclohexanecarbonyl)pyrrolidin-3-yl]benzamide] | 50
26 | COc1ncc(-c2cc(C(F)(F)F)c3c(N)ncnn23)cc1C(=O)NCCC(O)c1ccc(F)c(F)c1 (stereo not shown) [Example 135, 5-[4-amino-5-(trifluoromethyl)pyrrolo[2,1-f][1,2,4]triazin-7-yl]-N-[3-(3,4-difluorophenyl)-3-hydroxypropyl]-2-methoxypyridine-3-carboxamide] | 17
27 | Nc1ncnn2c(-c3ccc(F)c(C(=O)N[C@@H]4CN(C(=O)C5CC(F)C5)C[C@@H]4F)c3)cc(C(F)(F)F)c12 (stereo partly drawn) [Example 253, 5-[4-amino-5-(trifluoromethyl)pyrrolo[2,1-f][1,2,4]triazin-7-yl]-2-fluoro-N-[(3R,4S)-4-fluoro-1-(3-fluorocyclobutanecarbonyl)pyrrolidin-3-yl]benzamide] | 22
28 | Cc1cc(F)c(-c2cc(C(F)(F)F)c3c(N)ncnn23)cc1C(=O)N[C@@H]1CN(C(=O)C2CC(F)C2)C[C@@H]1F (stereo partly drawn) [Example 418, 5-[4-amino-5-(trifluoromethyl)pyrrolo[2,1-f][1,2,4]triazin-7-yl]-4-fluoro-N-[(3R,4S)-4-fluoro-1-(3-fluorocyclobutanecarbonyl)pyrrolidin-3-yl]-2-methylbenzamide] | 4.2
29 | COc1ncc(-c2cc(C(F)(F)F)c3c(N)ncnn23)cc1C(=O)NC1CN(C(C)c2ccc(F)cc2F)C[C@@H]1F (stereo partly drawn) [Example 437, 5-[4-amino-5-(trifluoromethyl)pyrrolo[2,1-f][1,2,4]triazin-7-yl]-N-[(3R,4S)-1-[1-(2,4-difluorophenyl)ethyl]-1-4-fluoropyrrolidin-3-yl]-2-methoxypyridine-3-carboxamide] | 12
30 | COc1ncc(-c2cc(C(F)(F)F)c3c(N)ncnn23)cc1C(=O)NC1CN(C(C)c2cc(F)cc(F)c2)C[C@@H]1F (stereo partly drawn) [Example 458, 5-[4-amino-5-(trifluoromethyl)pyrrolo[2,1-f][1,2,4]triazin-7-yl]-N-[(3R,4S)-1-[1-(3,5-difluorophenyl)ethyl] 1-4-fluoropyrrolidin-3-yl]-2-methoxypyridine-3-carboxamide] | 5.8
31 | COc1ncc(-c2cc(C(F)(F)F)c3c(N)ncnn23)cc1C(=O)NC1CN(C(C)c2cc(F)cc(F)c2)C[C@@H]1F (stereo partly shown) [Example 459] | 2.6
32 | COc1cc(C(=O)N[C@@H]2CN(C(=O)C3CC(F)C3)C[C@@H]2F)cc(-c2cc(C(F)(F)F)c3c(N)ncnn23)c1 (stereo partly drawn) [Example 575, 3-[4-amino-5-(trifluoromethyl)pyrrolo[2,1-f][1,2,4]triazin-7-yl]-N-[(3R,4S)-4-fluoro-1-(3-fluorocyclobutanecarbonyl)pyrrolidin-3-yl]-5-methoxybenzamide] | 13
33 | CCc1c(F)cc(-c2cc(C(F)(F)F)c3c(N)ncnn23)cc1C(=O)N[C@@H]1CN(C(=O)C2CC(F)C2)C[C@@H]1F (stereo partly drawn) [Example 655, 5-[4-amino-5-(trifluoromethyl)pyrrolo[2,1-f][1,2,4]triazin-7-yl]-2-ethyl-3-fluoro-N-[(3R,4S)-4-fluoro-1-(3-fluorocyclobutanecarbonyl)pyrrolidin-3-yl]benzamide] | 6.8
34 | CCc1c(F)cc(-c2cc(C(F)(F)F)c3c(N)ncnn23)cc1C(=O)N[C@@H]1CN(C(=O)C2CC(F)C2)C[C@@H]1F (stereo partly drawn) [Example 656, 5-[4-amino-5-(trifluoromethyl)pyrrolo[2,1-f][1,2,4]triazin-7-yl]-2-ethyl-3-fluoro-N-[(3R,4S)-4-fluoro-1-(3-fluorocyclobutanecarbonyl)pyrrolidin-3-yl]benzamide] | 3
